Some of the results follow.
These sequences were tested on PF3D7_0420300 AP2 domain 1 (GST-tagged) (assay: gcPBM binding intensity (ln(normalized median fluorescence intensity)); higher = stronger DNA binding).
How it was run: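 An Agilent 4 × 180k array carrying primer-extended double-stranded 36-bp intergenic genomic probes and negative controls received GST-tagged P. falciparum DNA-binding domains expressed in E. coli, about 25 μg on average, for 1 h. The binding buffer contained 1× PBS, 1% milk, 0.2 mg/ml BSA, 0.5% salmon testes DNA and 0.03% Triton X-100. Binding intensity is the top Masliner-normalised natural-log median intensity across replicate spots of either probe orientation, read after Alexa488 anti-GST antibody staining and a 488 nm scan.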

| Sequence | gcPBM binding intensity (ln) |
| --- | --- |
| GAAATTTTATTACTTTTACACACCTATATATTATTC [CACACA_site9076] | 9.53 |
| ATATTATATATACACGCACACACACTAATATATATA [CACACA_site9092] | 10 |
| TATGTATATATATTAACACACAAAAAAAAAAAAAAA [CACACA_site1812] | 9.27 |
| ATGAACGGAAAAATATATATAAATATATATATCATG [XGTACX_negctrl_site342] | 8.97 |
| TTAAACTATACCAAAACACACATACAAAATATAAAA [CACACA_site5494] | 9.65 |
| TACATGATAGATCACACACACATATAAATATATATA [CACACA_site5562] | 9.86 |
| TAAAATAACTCACAAAGTACAAAAATAAGCATATGA [XGTACX_site7046] | 9.48 |
| ACATAAGACACAAATACACACAAAAATATATAACAA [CACACA_site4082] | 10 |
| AAAATATATTAAGGCACACACATACAGATATATATA [CACACA_site5951] | 10 |
| TACATACACAAATACACACACAAATACATACCCAAA [CACACA_site4550] | 10 |
| TTTTTTCTTTTTTTTTTTTTTTTCTTTTTTTTTTTT [GTGCAC_negctrl_site196] | 8.99 |
| TACGTGAAATTATATACACACATAAATATGGGTGTA [CACACA_site5687] | 9.29 |
| GGTATACTCAAGTATACACACATATATATATATATA [CACACA_site5746] | 9.29 |
| GTATATAAATAAATAGTGCATTATTAAAAATAATGT | 9.29 |
| TTTTTTTTTTTTTATTGTACATACTTTTAAATATAT [XGTACX_site4303] | 9.13 |
| TATCTCCACAAAAGATGTACTCATATTAATTTATAA [XGTACX_site3535] | 8.83 |
| GTATACAACATATGAACACACAAAATATTTTTTTTT [CACACA_site2928] | 9.45 |
| TTAAAGCTTGCATATACACACATACATAAATTCATA [CACACA_site7208] | 9.42 |
| ATTGAGGCTGGTTATATAATAATTTTATTATTTTAG [GTGCAC_negctrl_site409] | 9.25 |
| ATATATTTATATTTTTGTACCCAAAATTGTTTGATG [XGTACX_site3581] | 9.2 |
| TAAAAGTTGAAGCACACACACAAAAGAAATACAATA [CACACA_site6649] | 10.1 |
| TTTGTTATATTTAATACACACATATTATAAACACAT [CACACA_site7703] | 9.51 |

| Sequence | gcPBM binding intensity (ln) |
| --- | --- |
| TATGAAAAGTAAAGTACACACAGGAAAAAAAAAAAA [CACACA_site1749] | 9.61 |
| ATAAATAAAGGACACACACACACACTAATAAAAAAA [CACACA_site8840] | 10.3 |
| TATATAATATATTTATGTACTCACAATGGGGTCTAC [XGTACX_site2691] | 9.21 |
| ATATATATATATATATGTACATAATGCATATAATAT [XGTACX_site6142] | 9.27 |
| TTAATACTTTTTTCTGTACACACTTGATTTACTATA [CACACA_site2799] | 9.63 |
| GAAGGAAAAGATACGATAAAATAAGATATTAATTTA [GTGCAC_negctrl_site419] | 9.05 |
| TTCTTCAATATATTCTTACACACTTAAAAAAAAAAA [CACACA_site228] | 9.08 |
| TAAACACCCATACATACACACATACATACACCCATA [CACACA_site5125] | 9.58 |
| GTATTATATTTTAATACACACCCAAATATTAAAAAG [CACACA_site8968] | 9.48 |
| TGCCATCATATCATAGGTACACAAACATATAAAGAA [XGTACX_site4137] | 9.31 |
| AAATGTTCAGAAACTATTATAAAAATGGAATAATAT [CACACA_negctrl_site1544] | 9.25 |
| TAAATATTATATTTATGTACATAAGTTTTTTTTAAT [XGTACX_site3559] | 9.08 |
| CTTAATATGGATATTGCATGTAGAACATGAACAATA [TGCATGCA_site760] | 8.93 |
| TTAACAAATAAATGCACACATATATATAAATAATAT [CACACA_site28] | 9.47 |
| TTATGCTCAAAGAAAAGTACATAAATAAAAGTATAT [XGTACX_site7365] | 9.11 |
| TATATGTAGATTAAACGTACTTACAACGGAATTATC [XGTACX_site3036] | 9.37 |
| GTTCATATAATAAAATGTACATAATATATTATATAT [XGTACX_site7623] | 9.19 |
| AAATTACTGTAAAAAAGTACAGAAGTTCTTATTTTT [XGTACX_site7416] | 8.98 |
| AGTTTAATTTTGTATACACACATTTGAATTATTAAT [CACACA_site7625] | 9.6 |
| AACAAATATGATTTTTTATATATTTTTAAATTTGGT [GTGCAC_negctrl_site189] | 9.06 |
| AGCTACAAAAATTAATATATATATGTATAGTTATAC [TGCATGCA_negctrl_site531] | 9.2 |
| TATATCTATTTCAAATGTACTTATATGATTCTTATA [XGTACX_site6277] | 9.04 |

| Sequence | gcPBM binding intensity (ln) |
| --- | --- |
| AAAAAAAAAATTATATATATATCCCTTATTTTTTCT [TGCATGCA_negctrl_site151] | 9.14 |
| CATACACAGAAACACACACACATATATACATATATA [CACACA_site1094] | 10.1 |
| TCATATATATTGAAATGTACTTATTTTTTCCTCATA [XGTACX_site6526] | 9.17 |
| TATACATAGAAACACACACACATAAATAAATATATA [CACACA_site1342] | 10.1 |
| CCTTAAATAATATATTCACACAATATAACAAAAATT [CACACA_site4892] | 9.26 |
| TGGTATATAAAACACACACACATATGTATATATATA [CACACA_site926] | 9.81 |
| ACTACGAATGGTAGAGTGCAGTCTGGAGAAGAGTAC [GTGCAC_site9685] | 9.36 |
| GCATACATCAAGCACACACACACACGCACACGCACA [CACACA_site6311] | 10.3 |
| AAAAAAAAGAATTAGGCACACAATTTTAATATAGGA [CACACA_site1522] | 9.29 |
| GTGAAGTTCAAAATATGTACTTATGTATGTATTTTT [XGTACX_site165] | 9.18 |
| TTATGGATGGACAATAATAAAATTTTTACTTTTATT [CACACA_negctrl_site908] | 9.06 |
| TTATGTTTCATAAAAAATTAATCAAACATATATAAG [CACACA_negctrl_site666] | 8.9 |
| AAGCTTAAAAATGGGGGTACGTCATAGGGATTCAAC [XGTACX_site8080] | 9.36 |
| AATATATAAACATATACACACAAAAACATATATATA [CACACA_site4855] | 10 |
| TTTGACACAATATTTTGTACGAAACTATTAATTCAA [XGTACX_site4853] | 8.92 |
| TTGCTTTTCATTTATTGTACATACCCAGTAGGATAA [XGTACX_site3939] | 9.26 |
| GACATAGTATTAAGTTGTACATATATAAAAATAAAT [XGTACX_site1583] | 9.29 |
| ATGTTTTCAAAAATAAAACATATAAATAAATAAATA [TGCATGCA_negctrl_site226] | 9.05 |
| TTACGAATGAATATATGTACATATATATATATATAT [XGTACX_site3790] | 9.26 |
| AATGTACACGCACCCACACACAAACAAATATAAATA [CACACA_site7319] | 9.81 |
| CAACAACAAATGAGAAGTACATAAATATTAACAATA [XGTACX_site4625] | 9.51 |
| TTATAATACCTACAAAGTACAAACTTAAATATGAAC [XGTACX_site5684] | 9.34 |

| Sequence | gcPBM binding intensity (ln) |
| --- | --- |
| ATATGTTTTAAGTGTACACATATAATGTATTTTGTT [CACACA_site4929] | 9.49 |
| TTGCTCATTGAAATTATACACACCAAATATATAAAT [CACACA_site2482] | 9.32 |
| AACCTATCTATAGGAACAATATATATATATATAATT [CACACA_negctrl_site1707] | 9.24 |
| TATTATGCTATTTAATGTACGGAATTTATATATATA [XGTACX_site564] | 9.14 |
| AAAATATATAAACGCACATATATTTATGTATATATA [CACACA_negctrl_site163] | 9.37 |
| TAAAAAAAAACATGATGTACATAAAATTTTTTACTT [XGTACX_site7056] | 9.12 |
| TTATTAGAGATGTTAAGATATAGGGATAATTTCGAT [XGTACX_negctrl_site395] | 9.06 |
| TACATATATTTAAGGAGTACAAAAAATAATGATAAA [XGTACX_site3539] | 9.31 |
| AAAAGGGAAAAAATTAAAATTATATATATATATATG [CACACA_negctrl_site137] | 8.98 |
| TTTGTTCAATTTACATGTACAGATATAATCTAACAT [XGTACX_site370] | 9.1 |
| TCTATTAAAACAAATTGTACTTATTGATAAAGAATA [XGTACX_site3645] | 8.85 |
| ATTTTTATTTTATATACACACAATAATAATATAATA [CACACA_site4015] | 9.39 |
| AAGAGCAACCAAATAGAAAAAGGAAAATAAAAGGAA [CACACA_negctrl_site100] | 9.51 |
| TCCTATTTTATATAATGTACATAAATATATTACATA [XGTACX_site2720] | 9.25 |
| TATAACATAAAACACACACACATACATACACAAAAA [CACACA_site1804] | 10.1 |
| AAATTTTTTTTTTAATTTTTTATTTAAAAAAAATAT [TGCATGCA_negctrl_site174] | 8.66 |
| GTTATAAATAAATATACACACATATATAAAATACAT [CACACA_site7146] | 9.75 |
| CGCTTTATTTATATATGTACATATATATATATATAC [XGTACX_site5012] | 9.33 |
| AAGGCAAACAGACACACACACATATATACCTATATA [CACACA_site7077] | 9.76 |
| GTTATACACATTACATGTACAAAAGTTGCACTTCAT [XGTACX_site6023] | 9.28 |
| GTTGCCATCATTTGGCGTACAGTCAAAACCAAATCT [XGTACX_site1398] | 8.93 |
| TATAAGAAATAAAACCTGATTATAAACCTGTAACCA [CACACA_negctrl_site1302] | 9.34 |
